# Source: article PMC4336329 (PLoS ONE, 2015)
# About 2,200 (0.71%) of roughly 310,000 compounds showed an effect of 50% or more. The effect is printed as a negative number. The list shows a part of the results.
# Target: human ether-à-go-go-related gene (hERG) potassium channel (human, UniProt Q12809)
# Test: primary screen, population patch clamp on CHO cells stably expressing hERG
# human ether-à-go-go-related gene (hERG) potassium channel, sequence (Q12809 whole entry, looked up): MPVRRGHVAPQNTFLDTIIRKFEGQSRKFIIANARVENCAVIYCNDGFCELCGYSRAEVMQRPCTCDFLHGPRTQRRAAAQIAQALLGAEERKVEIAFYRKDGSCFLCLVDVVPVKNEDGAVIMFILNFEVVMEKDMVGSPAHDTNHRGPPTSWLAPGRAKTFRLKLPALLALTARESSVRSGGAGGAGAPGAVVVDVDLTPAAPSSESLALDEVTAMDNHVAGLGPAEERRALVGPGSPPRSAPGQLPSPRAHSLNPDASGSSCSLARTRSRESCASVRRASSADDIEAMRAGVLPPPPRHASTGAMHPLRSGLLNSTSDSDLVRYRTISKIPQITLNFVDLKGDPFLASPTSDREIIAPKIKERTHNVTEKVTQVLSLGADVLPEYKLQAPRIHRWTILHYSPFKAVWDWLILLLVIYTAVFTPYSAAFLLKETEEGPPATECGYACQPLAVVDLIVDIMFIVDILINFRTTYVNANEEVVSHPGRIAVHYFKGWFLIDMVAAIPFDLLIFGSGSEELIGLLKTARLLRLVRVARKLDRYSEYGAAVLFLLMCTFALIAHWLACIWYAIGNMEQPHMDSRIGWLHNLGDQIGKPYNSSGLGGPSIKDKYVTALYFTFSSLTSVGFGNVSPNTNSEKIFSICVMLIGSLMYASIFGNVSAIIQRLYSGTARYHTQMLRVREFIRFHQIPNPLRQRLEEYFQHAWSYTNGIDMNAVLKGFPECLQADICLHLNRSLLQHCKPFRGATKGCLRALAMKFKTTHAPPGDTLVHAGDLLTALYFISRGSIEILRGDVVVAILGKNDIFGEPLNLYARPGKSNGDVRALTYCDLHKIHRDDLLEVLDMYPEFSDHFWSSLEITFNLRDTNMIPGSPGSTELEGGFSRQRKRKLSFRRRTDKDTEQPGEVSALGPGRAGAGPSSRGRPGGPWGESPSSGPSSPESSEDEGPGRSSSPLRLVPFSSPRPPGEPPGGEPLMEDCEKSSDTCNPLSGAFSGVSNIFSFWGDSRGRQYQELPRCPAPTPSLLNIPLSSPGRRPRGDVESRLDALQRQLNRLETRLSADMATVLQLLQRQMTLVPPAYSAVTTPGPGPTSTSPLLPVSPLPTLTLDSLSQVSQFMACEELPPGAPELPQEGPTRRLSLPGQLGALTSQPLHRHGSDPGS
row,Structure (SMILES),"hERG current change (%, negative = inhibition) at 1uM"
1,O=C(CCS(=O)(=O)c1cccc2nonc12)NCCc1ccccc1Cl,6.08%
2,CCn1nc(C)c(Br)c1-c1nc(-c2cccc(C)c2)no1,19%
3,COc1ccc(C(=O)N/N=C/c2ccc(N(C)c3ccccc3)cc2)cc1,13.1%
4,NC12CC3CC(C1)CC(CC(=O)O)(C3)C2,8.91%
5,CCCNC(=O)CN(C)CC(=O)Nc1ccccc1C#N,14.2%
6,CCNCc1ccc(OCc2ccccc2F)c(OC)c1.Cl,-0.576%
7,CC(=O)N(CCc1cccc(C)c1)Cc1cc2cc(C)ccc2[nH]c1=O,7.78%
8,COc1ccc(C2=NS(=O)(=O)N(C)C(C(=O)N3CCOCC3)=C2)cc1OC,2.08%
9,O=C(N/N=C(\c1ccccc1)c1ccccn1)c1ccccc1Cl,3.77%
10,CC(OC(=O)CCN=C1NS(=O)(=O)c2ccccc21)C(=O)NCc1ccccc1 (stereo not shown),11.8%
11,O=[N+]([O-])c1ccc(S(=O)(=O)Nc2nnc(C(F)(F)F)s2)cc1,7.3%
12,O=C1CC(NCCN2CCOCC2)C(=O)N1Cc1ccc(N2CCCC2=O)cc1 (stereo not shown),12%
13,CN1CCN(C2CCCCC2NS(=O)(=O)c2ccc(Cl)cc2)CC1 (stereo not shown),-5.18%
14,CC(=O)c1cc2c(cc1NC(=O)CN1CCCCCCC1)OCO2.O=C(O)C(=O)O,7.8%
15,CCN(CC)S(=O)(=O)c1cc(NS(=O)(=O)c2ccccc2)ccc1C,7.02%
16,COCCNC(=O)Cn1cc(C(=O)c2ccco2)c2ccccc21,3.43%
17,CN1CCN(C(=O)c2cc(Br)cn2C)CC1,15%
18,Cc1ccc(-n2ccc(=O)c(-c3ccnc(SCc4cccc(Cl)c4)n3)n2)cc1,12%
19,Cc1csc2cc(-c3cccc([N+](=O)[O-])c3)c(-c3cccc([N+](=O)[O-])c3)c[n+]12.[Br-],8.25%
20,O=C(c1ccc(CNS(=O)(=O)c2ccccc2)cc1)N1CCC2(CC1)OCCO2,3.94%
21,O=C(O)CCSc1nnc(COc2ccc([N+](=O)[O-])cc2)n1-c1ccccc1,8.37%
22,CC1CCc2nc(NC(=O)c3ccc(S(=O)(=O)N4CCCc5ccccc54)cc3)sc2C1 (stereo not shown),-3.86%

row,Structure (SMILES),"hERG current change (%, negative = inhibition) at 1uM"
1,COc1ccc(-n2nnnc2SCc2nc3ccccc3s2)cc1,11.9%
2,Cc1c(NC(=O)CN(c2ccccc2)S(=O)(=O)c2ccc(F)cc2)c(=O)n(-c2ccccc2)n1C,-18.9%
3,COc1ccc(C2C(C(=O)N3CCOCC3)c3ccccc3C(=O)N2c2ccc(OC)cc2)cc1 (stereo not shown),0.073%
4,COc1ccc(S(=O)(=O)N2CCN(C(=O)c3c(C)nn(-c4ccccc4)c3C)CC2)cc1,-10.8%
5,O=C(CN1C(=O)CCC1=O)Nc1nc(-c2ccc(Cl)s2)cs1,4.34%
6,CC(C)OC(=O)c1cn(-c2ccccc2)nc1-c1ccc2c(c1)OCCO2,10.4%
7,CC1(C)CC(=O)C=C(c2cccc(CO)c2)C1,19.6%
8,S=C(NCc1ccco1)Nc1ccc(Br)cc1Cl,8.69%
9,Cn1nc2c(c1C(=O)O)CCCC2,0.235%
10,COc1ccc(CN(C)C(=O)CCN(c2ccccc2)S(=O)(=O)c2ccc(C)cc2)c(OC)c1,3.29%
11,COc1cccc(NC(=O)c2ccccc2-c2nc(-c3ccccc3)no2)c1,7.38%
12,CCOC(=O)c1c(CN2CCOCC2)oc2ccc(OC(C)=O)cc12,14.3%
13,CCCCn1c(O)c(C(CC)=Nc2ccc(OCC)cc2)c(=O)[nH]c1=O,-4.03%
14,COc1ccc(NC(=O)CSCC(=O)Nc2nnc(CC(C)C)s2)cc1,19.4%
15,CNc1ccc(Br)cc(C(=O)/C=C/c2cc(OC)ccc2OC)c1=O,2.29%
16,N#CC(C(=O)NC1CCCCC1)=C1CCCCC1,11%
17,COc1ccc(CCNC(=O)C(=O)N2CCCC2)cc1OC,6.5%
18,CCOc1ccccc1OC(=O)CN1C(=O)c2ccccc2C1=O,18.3%
19,Cl.c1ccc2c(N3CCOCC3)c3c(nc2c1)CCC3,0.62%
20,O=C(N/N=C/C=C/c1ccc([N+](=O)[O-])cc1)C1COc2ccccc2O1 (stereo not shown),-23.4%
21,Cc1cccc(C(=O)Nc2nnc(C3=COCCO3)o2)c1,12.9%
22,COc1ccc(OC)c(C2SCCN2S(=O)(=O)c2cccc(C(F)(F)F)c2)c1 (stereo not shown),15.1%

row,Structure (SMILES),"hERG current change (%, negative = inhibition) at 1uM"
1,C=C(C)C(=O)Nc1cccc(C2=NOC3(C2)C[C@@H](C(N)=O)N(C(=O)c2ccc(Cl)cc2)C3)c1 (stereo partly shown),-15.8%
2,O=C(O)c1ccc(NCCC2=CCCCC2)c([N+](=O)[O-])c1,29.7%
3,CNc1oc(-c2ccccc2Cl)nc1C#N,8.73%
4,O=[N+]([O-])NC1=NCCN1Cc1ccc(Cl)nc1,10%
5,CCOC(=O)C1(CCCc2ccccc2)CCN(C(=O)CSC)CC1,3.88%
6,O=C(Nc1cc(Cl)ccc1-n1cncn1)c1ccco1,10.8%
7,COCCCN1C(=O)c2ccc(C(=O)NCCc3ccccc3)cc2C1=O,11.9%
8,O=C(NC1CCCCC1)C(c1ccccc1)N(C(=O)Cc1ccsc1)c1ccccc1 (stereo not shown),5.66%
9,COc1ccc(CCN2C(=O)CC(N3CCN(C/C=C/c4ccccc4)CC3)C2=O)cc1OC (stereo not shown),-14.1%
10,CS(=O)(=O)Nc1ccccc1C(=O)N1CCCC1,15.7%
11,O=C(CSc1nc2ccc([N+](=O)[O-])cc2s1)NC1CCS(=O)(=O)C1 (stereo not shown),0.439%
12,CCOC(=O)c1cc2sccc2n1Cc1ccc(C#N)cc1,6.14%
13,CCc1nc(Nc2ccc3c(c2)OCCO3)c2oc3ccccc3c2n1.Cl,12%
14,COC(=O)C1=C(C)NC(C)=C(C(=O)OCC2CCCO2)C1c1ccc(Cl)c([N+](=O)[O-])c1 (stereo not shown),4.23%
15,Cc1ccc(Cl)c(Nc2ccccc2C(=O)[O-])c1Cl.[Na+],-2.92%
16,CN1CCN(C2=C(Cl)C(=O)N(c3ccc(Cl)cc3)C2=O)CC1,6.47%
17,O=[N+]([O-])c1ccc(N2CCCC2)c2ccncc12,12.9%
18,CCCCn1cnc2c(c(-c3ccccc3)c(-c3ccccc3)n2Cc2ccco2)c1=N,-45.6%
19,CCCCOP(=O)(c1ccc(N(C)C)cc1)C(Nc1ccccc1)c1ccccc1 (stereo not shown),2.32%
20,O=C(Cc1cn(Cc2cccc(Cl)c2)c2ccccc12)N1CCCCCC1,7.31%
21,CCOC(=O)c1c(NC(=O)CCN2C(=O)c3ccccc3C2=O)sc(C(=O)OC(C)C)c1C,-0.128%
22,Cc1nnc(C)c2c(C)n(N)c(C)c12,4.5%

row,Structure (SMILES),"hERG current change (%, negative = inhibition) at 1uM"
1,COc1ccccc1P(=O)(c1ccccc1)c1ccccc1NC(C)=O (stereo not shown),13.7%
2,O=C(Nc1nc2c(Br)cc(Br)cc2c(=O)s1)c1ccco1,13%
3,C=CCN1C(=Nc2ccccc2)SC/C1=C\C(=O)OC,9.65%
4,O=C(O)COc1ccccc1/C=N/NC(=O)CNC(=O)c1ccco1,11%
5,CCCNC(=O)NC(=O)COC(=O)CNS(=O)(=O)/C=C/c1ccccc1,14.5%
6,O=C(Cn1ncc2c3ccccc3n(Cc3ccccc3)c2c1=O)N1CCN(c2ncccn2)CC1,11.4%
7,COc1ccc(C(C)=O)c(OC(=O)c2ccco2)c1,10.9%
8,O=S(c1ccc2ccccc2c1)c1cnns1 (stereo not shown),17.6%
9,CCOc1ccc(NC(=O)NNC(=O)C2CCC(C(C)(C)C)CC2)cc1 (stereo not shown),13.6%
10,CCOc1ccc(NC(=O)N2CCN(Cc3ccc4c(c3)OCO4)CC2)cc1,3.52%
11,CC(=O)N1CCC(C(=O)Nc2ccc(S(=O)(=O)N3CCCCC3)cc2)CC1,-6.47%
12,CCc1ccc(-n2c([O-])c(C(C)=O)c(=O)[nH]c2=O)cc1.C[NH+](C)C,14.1%
13,C/C(=C\C(=O)c1ccc(Br)cc1)NNC(=O)c1ccc(O)cc1,13.3%
14,Cc1ccc(NC(=O)CCS(=O)(=O)c2ccccc2)cc1S(=O)(=O)N1CCOCC1,7.17%
15,CC(NC(=O)C1CCC(CNS(=O)(=O)c2ccccc2)CC1)c1ccc2c(c1)OCCO2 (stereo not shown),-2.71%
16,COCCCN1C(=O)c2ccc(C(=O)OCC(=O)N3CCN(c4ccccc4)CC3)cc2C1=O,-3.38%
17,COc1ccc(C(=O)N(C)C(C)c2ccon2)cc1OC1CCN(C(C)C)CC1 (stereo not shown),9%
18,COC(=O)C1=C(C)N(c2ccc(OC)cc2)C(=O)/C1=C\c1cccs1,5.58%
19,Cc1cccc(CN2CCc3c([nH]c4ccccc34)C2C(C)(C)C)n1 (stereo not shown),12.3%
20,COc1ccc(S(=O)(=O)NC2CCN(Cc3ccccc3)CC2)cc1NC(C)=O,3.79%
21,S=C(Nc1ccc(Br)cc1Cl)N1CCC2(CC1)OCCO2,9.71%
22,O=C(Cc1cccs1)Nc1ccon1,23%
